Source: PubChem BioAssay AID588855 (National Center for Advancing Translational Sciences (NCATS), 2011)
Hit rate of the full screen: of about 410,000 compounds, about 5,000 (1.2%) were called active. Inconclusive means that the source gave no clear call. Such entries were picked first, then a sample of the others. The call rests on the fitted dose curve; in most records, active means well fitted inhibition curve with a large enough effect; inconclusive means small, poorly fitted or top-dose-only effect; inactive means no such curve, though single readings can be large or run the other way. Potencies of inconclusive entries are doubtful fits and often do not repeat.

Assay: qHTS for Inhibitors of TGF-b; further: nearly all actives have a fitted effect of over 65% in size
Conditions: HepG2 CAGA-GFP TGF-b/SMAD3 reporter, GFP fluorescence, 18 h, TGF-beta stimulated, 500 pg/mL final; series mostly up to 46.1 µM
Outline: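 HEPG2 CAGA-GFP cells (1000/well, DMEM with 1% FBS) were pre-incubated 2 h at 37 degrees C, given compound by pin tool, then stimulated with TGF-beta at 500 pg/mL final for 18 h before per-cell GFP fluorescence imaging.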
Potency means the concentration at half of the fitted maximal effect; tags describe the fitted curve by direction and shape.

| SMILES | Potency |
| --- | --- |
| CCOc1ncccc1C(=O)Nc1cc2c(cc1Br)OCCO2 | inactive |
| COC(=O)CN(c1ccc(OC)cc1)S(=O)(=O)c1ccc(OC)c(OC)c1 | inactive |
| COc1ccc(S(=O)(=O)N(C)C[C@H]2Oc3c(NC(=O)Nc4ccc(C(F)(F)F)cc4)cccc3C(=O)N([C@H](C)CO)C[C@@H]2C)cc1 | inconclusive: 17.8 µM [inhibitor, single point] |
| Cc1ccc2nc(C(=O)N3CCc4c([nH]c5ccccc45)C3c3ccccn3)cn2c1 (centres undefined) | inconclusive: 2.24 µM [inhibitor, partial curve] |
| CC[C@]12c3[nH]c4ccccc4c3CCN1C(=O)C(CC(=O)NC/C=C(\C)CCC=C(C)C)C[C@@H]2C(=O)N1CCN(C(=O)C2CC2)CC1 (some centres undefined) | inconclusive: 14.1 µM [inhibitor, single point] |
| COc1cccc(C(=O)Nc2cccc3c2ccc2cccn23)c1 | inactive |
| CC(C)(C)C1CCc2onc(C(=O)Nc3ccc4c(c3)OCO4)c2C1 (centres undefined) | inactive |
| COc1cc(C=C2C(=O)c3ccccc3C2=O)cc(OC)c1OC | inactive |
| Cc1ccc(Nc2nc(N)c([N+](=O)[O-])c(N3CCOCC3)n2)cc1C | inactive |
| CCCOc1cccc(CN2CCCCC2c2cccnc2)c1 (centres undefined) | inconclusive: 22.4 µM [inhibitor, single point] |
| CC(=O)c1ccc(OCC(=O)N(C2CCCCC2)C2CCS(=O)(=O)C2)cc1 (centres undefined) | inconclusive: 1.26 µM [inhibitor, partial curve, poor fit] |
| C[C@@H]1CN([C@H](C)CO)C(=O)c2cc(NC(=O)Nc3ccc(C(F)(F)F)cc3)ccc2O[C@H]1CN(C)S(=O)(=O)c1ccccc1 | inconclusive: 12.6 µM [inhibitor, partial curve, poor fit] |
| Cc1occc1C(=O)N(C)Cc1nc(-c2ccccc2)no1 | inactive |
| Cc1ccccc1NC(=O)N1CCCC(c2nc(-c3ccc(F)cc3)no2)C1 (centres undefined) | inactive |
| CC(C)CC(=O)NCC(c1ccc2c(c1)OCO2)N1CCN(c2ccccc2F)CC1 (centres undefined) | inconclusive: 7.08 µM [inhibitor, full curve, poor fit] |
| CCN1CCN(c2ccc(NC(=O)c3ccc(Br)o3)cc2)CC1 | inactive |
| Brc1c(OCCOCCn2cncn2)ccc2ccccc12 | inconclusive: 35.5 µM [inhibitor, single point] |
| O=[N+]([O-])c1ccc2c(c1)C(N1CCOCC1)/C(=C/COc1ccc(F)cc1)O2 (centres undefined) | inconclusive: 14.1 µM [inhibitor, single point] |
| CCn1cc(CCC(=O)NCc2cccc(OC)c2OC)c2ccccc21 | inconclusive: 35.5 µM [inhibitor, single point] |
| O=C(Cn1ncn2c(cc3cc(F)ccc32)c1=O)NC1CCCCC1 | inactive |
| CC1=C(C(=O)N2CCCCCC2)CC(CC(=O)NCCN2CCOCC2)C(=O)N1Cc1ccccc1 (centres undefined) | inconclusive: 35.5 µM [inhibitor, single point] |
| CC(c1nccs1)N(C)C(=O)CCc1nnc(-c2ccc(-c3ccccc3)cc2)o1 (centres undefined) | inconclusive: 3.98 µM [inhibitor, partial curve, poor fit] |

| SMILES | Potency |
| --- | --- |
| CCOc1ccccc1NC(=O)Cn1nc(-c2ccco2)ccc1=O | inconclusive: 35.5 µM [inhibitor, partial curve, poor fit] |
| CCOC(=O)C1CCC(CN(Cc2ccc(OC)cc2)S(=O)(=O)c2ccc(C)cc2)CC1 (centres undefined) | inactive |
| COC(=O)c1ccc2nc(-c3cccc(Cl)c3)c(Cc3ccccc3OC)n2c1 | inconclusive: 22.4 µM [inhibitor, single point] |
| O=C(Nc1cc(Cl)cc(Cl)c1)c1ccc(F)c(S(=O)(=O)N2CCCC2)c1 | inconclusive: 35.5 µM [inhibitor, single point] |
| COc1cc(OC)c(C(=O)NCc2nc(-c3ccccc3)no2)cc1OC | inconclusive: 20 µM [inhibitor, partial curve, poor fit] |
| Cc1nn(-c2ccc(Cl)cc2)c2[nH]c(CCl)cc(=O)c12 | inconclusive: 22.4 µM [inhibitor, single point] |
| CCCCCn1c(=O)[nH]c2cc(C(=O)N3CCN(c4ccc(OC)cc4)CC3)ccc2c1=O | inconclusive: 2.51 µM [inhibitor, full curve] |
| COc1ccc(Cn2c(CCC(=O)Nc3ccc(Br)c(C)c3)nc3cccnc32)cc1 | inconclusive: 20 µM [inhibitor, single point] |
| COc1ccc(S(=O)(=O)NCc2ccc(C(=O)N3CCc4ccccc4C3)cc2)cc1 | inactive |
| N#CCNC1CC(=O)N(c2ccccc2)C1=O (centres undefined) | inactive |
| COC(=O)C1C(c2ccc(OC)cc2)Nc2nnc(C(F)(F)F)n2C1(C)O (centres undefined) | inconclusive: 3.16 µM [inhibitor, single point] |
| COc1ccc(OC)c(NC(=O)c2cc(-c3cc(C)ccc3O)n[nH]2)c1 | inconclusive: 35.5 µM [inhibitor, single point] |
| Cn1c(SCC(=O)Nc2cccc(F)c2)nnc1-c1cccnc1 | inconclusive: 2.82 µM [inhibitor, single point] |
| Cc1c(CCC(=O)N[C@@H](C)C(=O)O)c(=O)oc2cc3oc4c(c3cc12)CCCC4 | inactive |
| C=CCOc1c(CNC2CCCC2)cc(Cl)cc1OC | inactive |
| COc1ccc(C)cc1Nc1nc2c(S(=O)(=O)c3cc(C)ccc3C)nnn2c2ccsc12 | inactive |
| COCCNc1nc2c(S(=O)(=O)c3ccccc3)nnn2c2ccc(Cl)cc12 | inactive |
| CC1=NN(C(=O)c2csc(C)c2C)C(O)(C(F)(F)F)C1 (centres undefined) | inactive |
| Cc1cc(C)c(O)c(NC(=S)NC(=O)Cc2ccccc2)c1 | inconclusive: 35.5 µM [inhibitor, single point] |
| COc1ccc(NC(=O)c2sc3nc(C)c(C(=O)Nc4ccc(C)cc4C)c(-c4sccc4C)c3c2N)cc1 | inactive |
| O=C(Nc1nccs1)c1cccc(NC(=O)C(F)(F)F)c1 | inconclusive: 6.31 µM [inhibitor, partial curve, poor fit] |
| CCOC(=O)C1CCN(C2CCN(C(=O)c3oc4c(C)c(C)ccc4c3C)CC2)CC1 | inconclusive: 28.2 µM [inhibitor, single point] |
